Assay results reported in PubChem BioAssay AID686978 (National Center for Advancing Translational Sciences (NCATS), 2013).
The campaign covered roughly 420,000 compounds. About 64,000 (15%) were called active. The inconclusive results got no clear call from the source; some entries with a clear call stand among them for comparison. Calls come from the whole dose curve; as a rule, active = well fitted inhibition curve with a large enough effect; inconclusive = small, poorly fitted or top-dose-only effect; inactive = flat fitted curve, though single readings scatter. No potency is given beside an inconclusive call; the fits are too rough.

Test: qHTS for Inhibitors of human tyrosyl-DNA phosphodiesterase 1 (TDP1): qHTS in cells in absence of CPT; note: nearly all actives have a fitted effect of over 55% in size
Settings: DT40 Tdp1-/- hTDP1 cells, no CPT, ATP luminescence, 48 h; series mostly up to 46.2 µM
Method in brief: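 Cells were dispensed at 400 per well, compounds added by pin tool, plates incubated ≥48 hr at 37 °C, then CellTiter-Glo added for 30 min at room temperature before luminescence reading. Line: DT40 Tdp1-/- complemented with hTDP1; camptothecin omitted.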
Potency is the fitted concentration of half-maximal effect; tags give direction and shape of the fitted curve.

For `CC(=O)c1cccc(NC(=O)COc2ccc(S(=O)(=O)N3CCCCC3)cc2)c1`, which Potency is on record?
The Potency was inconclusive [inhibitor, single point].

For `S=C1NC[C@H](Cc2ccccc2)N1CC1CCN(CCCC2CCCC2)CC1`, which Potency is on record?
Its Potency is inconclusive [inhibitor, single point].

For `CCc1ccc2c(c1)NC(=O)C2(C)Cc1ccc(C(F)(F)F)nc1` (centres undefined), which Potency is on record?
Its Potency is inconclusive [inhibitor, single point].

For `C=C(C)CN(CC)c1ccc(N2C(=O)CCCC2=O)cc1[N+](=O)[O-]`, which Potency is on record?
Its Potency is inconclusive [inhibitor, single point].

For `CC(C)Cn1c(N)c(C(=O)CSc2ncn[nH]2)c(=O)n(C)c1=O`, which Potency is on record?
The Potency was inconclusive [inhibitor, single point].

With `COc1ccc(C(=O)C[C@@H]2OC[C@H](C(C)C)N2S(=O)(=O)c2ccc(C)cc2)cc1OC` as the compound, how does the Potency read?
The Potency was inconclusive [inhibitor, single point].

For `CC1CCN(c2c(NCC3CCC(C(=O)Nc4ccccn4)CC3)c(=O)c2=O)CC1` (centres undefined), which Potency is on record?
Its Potency is inconclusive [inhibitor, single point].

For `O=c1c2cn[nH]c2nc(SCc2cc(=O)n3cc(Br)ccc3n2)n1-c1ccc(Br)cc1`, which Potency is on record?
Its Potency is inconclusive [inhibitor, single point].

With `CCCOP(=O)(c1ccc(N(C)C)cc1)C(O)c1ccc(Br)cc1` (centres undefined) as the compound, how does the Potency read?
The Potency was inconclusive [inhibitor, single point].

For `Cc1ccc(CN2CCCn3nc(C(=O)NCc4ccccc4Cl)cc3C2=O)cc1`, which Potency is on record?
Its Potency is active: 25.9 µM.

For `COc1ccccc1NC(=O)N1CCCC1C(=O)NCc1ccc(F)cc1` (centres undefined), which Potency is on record?
The Potency was “inactive”.

With `COc1cc(Cl)c(C)cc1NC(=O)COc1cc(C)nc(C(C)C)n1` as the compound, how does the Potency read?
Its Potency is inconclusive [inhibitor, single point].

With `c1ccc(CNn2nnc3ccccc32)cc1` as the compound, how does the Potency read?
The Potency was inconclusive [inhibitor, single point].

Which Potency does the source give for `COc1ccc(Cl)cc1NC(=O)CN(C)C(=O)c1cc2ccccc2cc1OC` here?
The Potency was active: 18.4 µM.

With `CO[C@H]1O[C@@H]2O[C@@]3(C)CC[C@H]4[C@H](C)CC[C@@H]([C@H]1C)[C@@]24OO3` as the compound, how does the Potency read?
The Potency was active: 1.5 µM.

Which Potency does the source give for `COc1cccc(NC(=S)NCc2ccccn2)c1` here?
The Potency was inconclusive [inhibitor, single point].

For `COc1ccc(OCCOc2ccc(S(=O)(=O)N3CCCC3)cc2[N+](=O)[O-])cc1`, which Potency is on record?
Its Potency is inconclusive [inhibitor, single point].

For `CCCCN(CC)C(=O)CCn1c(=O)c2cccn2c2cccnc21`, which Potency is on record?
Its Potency is active: 18.4 µM.

With `COc1ccccc1C(=O)c1c(N)c(-c2nc(-c3ccccc3)cs2)c2ccccn12` as the compound, how does the Potency read?
Its Potency is active: 20.6 µM.

For `CCCn1c(SC(C(=O)Nc2cc(C)ccc2OC)c2ccccc2)nc2ccccc2c1=O` (centres undefined), which Potency is on record?
The Potency was active: 14.6 µM.

Which Potency does the source give for `O=C(NCCc1ccccc1)c1ccccc1NS(=O)(=O)N1CCCC1` here?
Its Potency is “inactive”.

With `CC(C)CN1CN(Cc2ccco2)CNC1=S` as the compound, how does the Potency read?
Its Potency is “inactive”.

Which Potency does the source give for `Cc1c(O)c(CN2CCCC2)cc2c1oc(=O)c1ccccc12` here?
The Potency was inconclusive [inhibitor, single point].

Which Potency does the source give for `Cc1cc(/C=C2\SC(=S)NC2=O)cc(C)c1O` here?
The Potency was inconclusive [inhibitor, single point].

With `CC1CCCC(NC(=O)COC(=O)[C@@H](NC(=O)c2ccc(F)cc2)C(C)C)C1C` (some centres undefined) as the compound, how does the Potency read?
Its Potency is inconclusive [inhibitor, single point].

For `CCCCNC(=O)CN1C(=O)CSc2ccc(S(=O)(=O)N3CCC(C)CC3)cc21`, which Potency is on record?
Its Potency is “inactive”.

With `O=C(NC1CCCc2ccccc21)C1CCN(c2nnc(-n3cccc3)s2)CC1` (centres undefined) as the compound, how does the Potency read?
The Potency was inconclusive [inhibitor, single point].

Which Potency does the source give for `CCOc1ccccc1C(=O)Nc1ccc2nc(N3CCN(c4ncccn4)CC3)cc(C)c2c1` here?
Its Potency is active: 9.2 µM.

For `CC(=O)c1cccc(N(C(=O)Cn2nnc3ccccc32)C(C(=O)NCc2ccccc2)c2ccc(F)cc2)c1` (centres undefined), which Potency is on record?
Its Potency is inconclusive [inhibitor, partial curve].

For `Cc1cc(NC(=O)C2CC(=O)N(c3ccc(Cl)cc3)C2)no1` (centres undefined), which Potency is on record?
The Potency was “inactive”.

With `CN(C)n1cccc1/C=C(\C#N)S(=O)(=O)c1cccc(Cl)c1` as the compound, how does the Potency read?
The Potency was “inactive”.

Which Potency does the source give for `CCOc1ccc(NC(=O)C2C3CCC4C(CCC32)C4(Cl)Cl)cc1` (centres undefined) here?
The Potency was inconclusive [inhibitor, partial curve].

Which Potency does the source give for `COc1cc(NS(=O)(=O)c2ccc(N)cc2)nc(C)n1` here?
Its Potency is “inactive”.

For `CCN(C(=O)CSc1nc2cc(C(=O)OC)ccc2c(=O)n1Cc1ccco1)c1cccc(C)c1`, which Potency is on record?
Its Potency is inconclusive [inhibitor, single point].

With `Cn1c(-c2ccccc2)cnc1NCc1cc2c(cc1[N+](=O)[O-])OCO2` as the compound, how does the Potency read?
Its Potency is inconclusive [inhibitor, partial curve].

With `COc1ccc(CN(Cc2ccccc2)C(=O)COC(C)=O)cc1COc1ccc(NC(C)=O)cc1` as the compound, how does the Potency read?
Its Potency is inconclusive [inhibitor, single point].

For `COc1ccc(N2C(=O)c3ccc(C(=O)Nc4cc(OC)ccc4OC)cc3C2=O)cc1`, which Potency is on record?
The Potency was “inactive”.

With `COC(=O)C1=CN(c2cccc(C(F)(F)F)c2)C=C(C(=O)OC)C1c1ccc(O)c(OC)c1` as the compound, how does the Potency read?
The Potency was inconclusive [inhibitor, single point].

For `CC(C)c1ccc(Nc2ncc3c(n2)CCN(C(=O)Nc2ccc(F)c(Cl)c2)C3)cc1`, which Potency is on record?
The Potency was inconclusive [inhibitor, single point].

For `Cc1ccc(-c2csc(NC(=O)c3ccc(-c4ccccc4)cc3)n2)o1`, which Potency is on record?
The Potency was inconclusive [inhibitor, single point].

Which Potency does the source give for `Cc1nc2c(Br)cc(Br)cc2cc1O` here?
The Potency was inconclusive [inhibitor, single point].

Which Potency does the source give for `O=C1C2C3C=CC(C3)C2C(=O)N1c1ccccc1` (centres undefined) here?
The Potency was “inactive”.

With `Cc1nn(CC2CC2)c(=O)n1N(C)c1ncc(C(F)(F)F)cc1Cl` as the compound, how does the Potency read?
The Potency was inconclusive [inhibitor, single point].

Which Potency does the source give for `COC(=O)c1ccc2c(=O)n(CCN3CCOCC3)c(SCC(=O)Nc3ccccc3Cl)nc2c1` here?
The Potency was inconclusive [inhibitor, single point].
